The full ranking holds about 2,900 compounds; the median of “IRF Lucia reporter activity, fold change vs agonist alone” is about 0.9, and the highest 2% start at about 2.8. Some of the results follow.
Key:
RAW-Dual [1] = test: IRF Lucia reporter activity, fold change vs agonist alone; cytotoxicity flag (confluency mask): not cytotoxic; higher = enhanced IRF activity
Summary of the method: (§1)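 RAW-Dual macrophages were seeded in DMEM at 50,000 cells/well in 384-well plates, given 50 nL of library stock by pin tool, and given a PRR agonist 1 h later. Plates were held at 37 °C, 5% CO2 for 20 hours, after which supernatant was read for IRF by QuantiLuc luminescence and for NF-κB by QuantiBlue absorbance at 620 nm. Reporter activity is expressed as fold change over wells that received agonist alone. A well was called cytotoxic when IncuCyte confluency fell below 70% of agonist controls in both mask sets.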

RAW-Dual [2] = test: IRF Lucia reporter activity, fold change vs agonist alone; higher = enhanced IRF activity; settings: cytotoxicity flag (confluency mask): not cytotoxic, agonist: MPLA (TLR4) […]
Summary of the method: as §1

[3] = agonist: 3'3'-cGAMP (STING) 10 ug/mL
[4] = library stock concentration (final ~1000-fold dilution): 10 mM

SMILES: NC(=O)c1cn(Cc2c(F)cccc2F)nn1 (library stock concentration (final ~1000-fold dilution): 10 mM)
- IRF Lucia reporter activity (RAW-Dual [1]; [3]): 0.925
- IRF Lucia reporter activity (RAW-Dual [1]; agonist: LPS (TLR4) 0.1 ug/mL): 1.18

SMILES: NC(=O)c1cn(Cc2c(F)cccc2F)nn1
- IRF Lucia reporter activity (RAW-Dual [2]; [4]): 1.03

SMILES: Cc1cc(O)c2c(c1)C(=O)c1cccc(O)c1C2=O
- IRF Lucia reporter activity (RAW-Dual [2]; [4]): 0.877

SMILES: Cc1cc(O)c2c(c1)C(=O)c1cccc(O)c1C2=O (library stock concentration (final ~1000-fold dilution): 10 mM)
- IRF Lucia reporter activity (RAW-Dual [1]; [3]): 0.928
- IRF Lucia reporter activity (RAW-Dual [1]; agonist: LPS (TLR4) 0.1 ug/mL): 1.02

SMILES: COc1cc2c(N3CCN(C(=O)Nc4ccc(OC(C)C)cc4)CC3)ncnc2cc1OCCCN1CCCCC1 (library stock concentration (final ~1000-fold dilution): 2 mM)
- IRF Lucia reporter activity (RAW-Dual [1]; [3]): 0.702
- IRF Lucia reporter activity (RAW-Dual [1]; agonist: LPS (TLR4) 0.1 ug/mL): 0.934

SMILES: COc1cc2c(N3CCN(C(=O)Nc4ccc(OC(C)C)cc4)CC3)ncnc2cc1OCCCN1CCCCC1
- IRF Lucia reporter activity (RAW-Dual [2]; library stock concentration (final ~1000-fold dilution): 2 mM): 1.02

SMILES: C=C1CCC2C(C)(CO)C(O)CCC2(C)C1C/C=C1\C=COC1=O (configuration not stated) (library stock concentration (final ~1000-fold dilution): 10 mM)
- IRF Lucia reporter activity (RAW-Dual [1]; [3]): 1.18
- IRF Lucia reporter activity (RAW-Dual [1]; agonist: LPS (TLR4) 0.1 ug/mL): 0.97

SMILES: C=C1CCC2C(C)(CO)C(O)CCC2(C)C1C/C=C1\C=COC1=O (configuration not stated)
- IRF Lucia reporter activity (RAW-Dual [2]; [4]): 1.17

SMILES: COc1ccc(C2(C#N)CCC(C(=O)O)CC2)cc1OC1CCCC1 (configuration not stated) (library stock concentration (final ~1000-fold dilution): 10 mM)
- IRF Lucia reporter activity (RAW-Dual [1]; [3]): 0.983
- IRF Lucia reporter activity (RAW-Dual [1]; agonist: LPS (TLR4) 0.1 ug/mL): 0.852

SMILES: COc1ccc(C2(C#N)CCC(C(=O)O)CC2)cc1OC1CCCC1 (configuration not stated)
- IRF Lucia reporter activity (RAW-Dual [2]; [4]): 0.779

SMILES: OB1OCc2cc(F)ccc21 (library stock concentration (final ~1000-fold dilution): 10 mM)
- IRF Lucia reporter activity (RAW-Dual [1]; [3]): 0.695
- IRF Lucia reporter activity (RAW-Dual [1]; agonist: LPS (TLR4) 0.1 ug/mL): 1.06

SMILES: OB1OCc2cc(F)ccc21
- IRF Lucia reporter activity (RAW-Dual [2]; [4]): 0.869

SMILES: O=c1ccc2cc(O)c(O)cc2o1 (library stock concentration (final ~1000-fold dilution): 10 mM)
- IRF Lucia reporter activity (RAW-Dual [1]; [3]): 0.737
- IRF Lucia reporter activity (RAW-Dual [1]; agonist: LPS (TLR4) 0.1 ug/mL): 1.31

SMILES: O=c1ccc2cc(O)c(O)cc2o1
- IRF Lucia reporter activity (RAW-Dual [2]; [4]): 1.02

SMILES: NC(=O)c1ncn(C2OC(CO)C(O)C2O)c1O (configuration not stated)
- IRF Lucia reporter activity (RAW-Dual [2]; library stock concentration (final ~1000-fold dilution): 10 mM water): 1.34

SMILES: NC(=O)c1ncn(C2OC(CO)C(O)C2O)c1O (configuration not stated) (library stock concentration (final ~1000-fold dilution): 10 mM water)
- IRF Lucia reporter activity (RAW-Dual [1]; [3]): 1.2
- IRF Lucia reporter activity (RAW-Dual [1]; agonist: LPS (TLR4) 0.1 ug/mL): 1.32

SMILES: CCCCCCCN(CC)CCCC(O)c1ccc(NS(C)(=O)=O)cc1.CCCCCCCN(CC)CCCC(O)c1ccc(NS(C)(=O)=O)cc1.O=C(O)/C=C/C(=O)O (configuration not stated)
- IRF Lucia reporter activity (RAW-Dual [2]; [4]): 1.05

SMILES: CCCCCCCN(CC)CCCC(O)c1ccc(NS(C)(=O)=O)cc1.CCCCCCCN(CC)CCCC(O)c1ccc(NS(C)(=O)=O)cc1.O=C(O)/C=C/C(=O)O (configuration not stated) (library stock concentration (final ~1000-fold dilution): 10 mM)
- IRF Lucia reporter activity (RAW-Dual [1]; [3]): 0.557
- IRF Lucia reporter activity (RAW-Dual [1]; agonist: LPS (TLR4) 0.1 ug/mL): 0.979

Source: the supplement of paper PMC10037445
